This passage reports z-score results from PubChem BioAssay AID488969 (Vanderbilt High Throughput Screening Facility, 2010).

In all, about 110,000 compounds were measured (“z-score”: median about -0.1, highest 2% from about 2 on). Some of the results follow.

The target of the experiment is Metabotropic glutamate receptor 8 (Rattus norvegicus) (UniProt P70579). Briefly: rat mGluR8 modulators via GIRK flux, primary screen, cell-based, thallium flux, HTS (AID 488969). To be noted: HEK293 rat mGluR8, GIRK (G protein-gated inwardly rectifying potassium channel) thallium flux, FluoZin2; at 10 µM; stronger effect = higher value; submaximal glutamate (EC20) added with thallium.
UniProt P70579, sequence (P70579 whole entry, looked up): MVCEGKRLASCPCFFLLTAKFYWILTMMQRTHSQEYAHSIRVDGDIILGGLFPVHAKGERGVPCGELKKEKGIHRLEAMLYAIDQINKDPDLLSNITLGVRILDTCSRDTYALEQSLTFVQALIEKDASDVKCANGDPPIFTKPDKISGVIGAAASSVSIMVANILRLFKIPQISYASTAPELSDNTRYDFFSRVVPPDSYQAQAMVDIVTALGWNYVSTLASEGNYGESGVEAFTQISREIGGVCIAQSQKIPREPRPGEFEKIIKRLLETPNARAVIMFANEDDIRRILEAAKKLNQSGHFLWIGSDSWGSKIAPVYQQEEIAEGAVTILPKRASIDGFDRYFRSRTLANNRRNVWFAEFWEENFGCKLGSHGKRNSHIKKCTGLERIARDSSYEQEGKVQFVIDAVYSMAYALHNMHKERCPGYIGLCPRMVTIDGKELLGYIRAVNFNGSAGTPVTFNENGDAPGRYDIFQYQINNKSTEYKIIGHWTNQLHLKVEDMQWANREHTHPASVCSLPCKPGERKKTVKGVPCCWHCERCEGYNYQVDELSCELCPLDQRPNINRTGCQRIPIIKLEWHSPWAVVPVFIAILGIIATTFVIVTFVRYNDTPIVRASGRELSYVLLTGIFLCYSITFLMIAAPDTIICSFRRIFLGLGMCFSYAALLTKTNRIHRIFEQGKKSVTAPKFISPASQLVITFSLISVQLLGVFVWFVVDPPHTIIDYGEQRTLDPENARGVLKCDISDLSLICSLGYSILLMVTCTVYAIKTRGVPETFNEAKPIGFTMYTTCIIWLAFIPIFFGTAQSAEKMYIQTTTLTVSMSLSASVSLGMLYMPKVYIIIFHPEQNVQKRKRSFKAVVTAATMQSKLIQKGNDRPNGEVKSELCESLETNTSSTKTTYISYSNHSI
The compound `O=C(Nc1ccc2nc(-c3ccc(Br)o3)[nH]c2c1)c1ccco1` gave a z-score of -0.408.
Then `COc1cccc(NC(=O)CSc2nnnn2C(C)C)c1`, with -0.0541; and `CCOC(=O)C1=C(C)NC(=O)NC1c1ccoc1` (stereo unspecified), with 0.05.
With `COc1ccc(CCN2C(=O)C(Oc3ccccc3)C2c2ccc3c(c2)OCO3)cc1` (stereo unspecified), the z-score was -0.146.
In turn, `Cc1ccc(-c2cc(N)n(Cc3ccc(Cl)cc3)n2)cc1` showed a z-score of -0.532.
`COc1cc(NC(=S)N2CCN(C(=O)c3ccco3)CC2)c(OC)cc1Cl` gave a z-score of 0.0584.
To `O=C(Cn1nnc2ccccc21)N/N=C\C=C\c1ccccc1` belongs -0.239; to `CCn1c(SCC(=O)c2ccc(C)cc2)nnc1-c1ccoc1C`, -0.127; to `CN1CCN(S(=O)(=O)c2cccc([N+](=O)[O-])c2)CC1`, -0.242.
To `CN(C)c1ccc(NC(=O)c2cccc(C(=O)Nc3ccc(N(C)C)cc3)n2)cc1` belongs -0.291; to `N#Cc1ccc(OCC(=O)N/N=C2\CCc3ccccc32)cc1`, -0.239; to `CCOC(=O)N1CCN(C(=O)C(CC(C)C)NS(=O)(=O)c2ccc3c(c2)oc(=O)n3C)CC1` (stereo unspecified), -0.122.
To `Cc1ccc(C(=O)COC(=O)CCCC(=O)Nc2cc(C(F)(F)F)ccc2Cl)cc1C` belongs 0.00411.
Regarding `CCC1CCCCN1C(=O)CSc1nnc(-c2ccc(Cl)cc2)o1` (stereo unspecified), the z-score was -0.41.
The compound `CC(Oc1ccccc1F)C(=O)Nc1ccc2ccccc2c1` (stereo unspecified) returned a z-score of -0.148.
Then `COCCN=c1scc(-c2cc(OC)ccc2OC)n1/N=C/c1c[nH]c2ccccc12`, with -0.343; and `CCOc1ccc(NC(=O)CN(c2cc(C)cc(C)c2)S(=O)(=O)c2c(C)noc2C)cc1`, with -0.145; and `COc1cccc(NC(=O)c2ccccc2-c2nc(-c3ccc(F)cc3)no2)c1`, with 0.389.
Then `COc1ccc2c(c1)[nH]c1c(=O)n(N)cnc12`, with 0.257.
For `O=S(=O)(NCc1ccco1)N1CCCCCC1`, the z-score was -0.0741.
Then `CCNC(=O)N(C)c1nncnc1C(=O)NC`, with 0.0162; and `C=CCc1c(C)c(C#N)c2nc3ccccc3n2c1NCCN(C)C`, with -0.0726; and `COc1cc(OC)c(C(=O)NNC(=S)NC2CCCCC2)cc1OC`, with -0.573.
The compound `CC(C)(C)C(=O)N1CCN(c2c(Cl)cccc2[N+](=O)[O-])CC1` came in with a z-score of -0.000363.
To `CC1=CC(c2ccccc2)n2nc(N3C(=O)CCC3=O)nc2N1` (stereo unspecified) belongs -0.00161.
To `CCCC1(C(=O)O)NC(c2ccccc2O)C2C(=O)N(c3cccc(Cl)c3)C(=O)C21` (stereo unspecified) belongs -0.488; to `CCCCOc1ccc(OCCNS(=O)(=O)N(C)C)cc1`, -0.0575.
`COC(=O)c1sc(NC(=O)c2ccc(Cn3cc(Cl)cn3)o2)c(C#N)c1C` gave a z-score of -0.585.
Then `CC1CCCCN1C(=O)Cc1ccc(Cl)cc1` (stereo unspecified), with -0.133.
To `CCOc1cc(-c2cn(S(=O)(=O)c3cccc4nsnc34)nc2N)cc(OCC)c1OCC` belongs -0.165; to `COc1ccc(-c2ccc(SCC(=O)N3c4ccccc4CC3C)nn2)cc1OC` (stereo unspecified), -0.926.
Then `CC(C)(C)C(=O)Nc1ccc(N2CCCC2)cc1`, with -0.154; and `Cc1ccc(NCc2nnc(SCC(=O)c3ccc4c(c3)OCCO4)o2)c(C)c1`, with -0.642; and `O=C(c1cccs1)N1CCCC1`, with 0.801.
On to `COC1=CCC2([N+](=O)[O-])CN(CCO)CC1([N+](=O)[O-])C2` (stereo unspecified), for which the z-score is -0.335.
Then `C/C(=N/OCO/N=C(/C)c1ccc(F)cc1)c1ccc(F)cc1`, with -0.112.
Then `O=C(CSc1ncn[nH]1)Nc1c(Br)cc([N+](=O)[O-])cc1Br`, with -0.332; and `Cc1cccc(CSC(=N)N)c1`, with 0.0999; and `CCN(CC)S(=O)(=O)c1ccc(NC2c3ccccc3C(=O)N2c2ccc(C)cn2)cc1` (stereo unspecified), with -0.341.
As to `CC(=O)NCCn1c(C)cc2ccccc21`, the z-score was 0.834.
Then `Fc1cnc(N2CCc3ccccc32)nc1N1CCc2ccccc21`, with -0.19; and `CC(C)CCSc1ncnc2c1oc1nc3c(cc12)COC(C)(C)C3`, with -0.0586; and `C=CCOn1c(=O)c(=O)n(OCc2ccccc2)c2ccccc21`, with -0.0797.
To `O=S(=O)(c1cccc2cccnc12)n1cnc2ccccc21` belongs -0.507; to `O=C(O)CCCCCN=C1CCc2ccccc2N1`, -0.601.
Then `CCCCC1(CCCC)NC(=S)N(Nc2ccc(C)cc2)C1=O`, with -0.236; and `C(=C\c1ccccc1)/CN1CCN(Cc2ccc3c(c2)OCCO3)CC1`, with -0.204; and `O=C(CNC(=O)c1cccs1)NCC(=O)OCc1ccc(Cl)cc1`, with -0.197.
With `O=C(NC1(C(F)(F)F)NC(=O)N(Cc2cccnc2)C1=O)c1ccncc1` (stereo unspecified), the z-score was 2.13.
To `CCN(CC)S(=O)(=O)c1ccc(NC(=O)C2CCCN(C(=O)c3ccc(Cl)cc3)C2)cc1` (stereo unspecified) belongs -1.01.
To `O=C(c1ccc(Cn2cc(Br)cn2)o1)n1cccn1` belongs -0.666; to `CS(=O)(=O)N(CC(=O)Nc1ccc(S(=O)(=O)N2CCCC2)cc1)c1ccccc1F`, -0.46.
Then `COc1ccc(OC)c(/C=N\NC(=O)CSc2nnc(CCCc3ccc(OC)c(C)c3)o2)c1`, with 0.0122.
As for `COc1ccc(-c2nc3ccccc3[nH]2)cc1`, the z-score is 0.164.
For the compound `CC(C)(C)CC(C)(C)NC(=S)NC1CCN(Cc2ccccc2)CC1`, the z-score is -1.42.
To `COc1ccc(NC(=O)c2cc(OC)c(OC)c(OC)c2)cn1` belongs -0.169; to `COc1ccc(-n2c(C)cc(C(=O)COC(=O)c3cc(OC)c(OC)cc3NC(=O)c3cccs3)c2C)cc1`, -0.000819.
To `COCCn1c(SCC(=O)Nc2ccc(C)cc2C)nc2c(oc3ccccc32)c1=O` belongs 0.175; to `COc1ccc2c(c1)c(=O)oc1cc(OCC(=O)NC3CC3)ccc12`, 0.671; to `O=C(O)CSc1ccc2ccccc2n1`, -0.359.
Turning to `CC(C)SC1=NC(C)(C)C=C(/C=C/c2ccc(Cl)cc2Cl)N1`, the z-score was 0.335.
As to `Cc1cc(C)nc(NC2=NCC(=O)N2CCc2c[nH]c3ccccc23)n1`, the z-score was 0.182.
Consider `CC(C(=O)NCc1ccco1)n1nc(-c2ccccc2)c2cc(Cl)ccc21` (stereo unspecified), for which the z-score was -0.295.
`COc1ccc(C(C[N+](=O)[O-])c2c(C)[nH]c3ccccc23)cc1OC` (stereo unspecified): the z-score was -2.31.
Then `Cc1noc(C)c1C1(O)CCCCCCCCCCC1`, with -0.117; and `Brc1ccc2c(c1)C(c1cccnc1)=NNC(c1cccs1)=N2`, with -0.465; and `Cc1sc2ccccc2[n+]1CCC(C)S(=O)(=O)[O-]` (stereo unspecified), with -0.108.
Then `CC(=O)Oc1ccc2c(=O)c(Oc3ccccc3)coc2c1OC(C)=O`, with -0.317; and `N#CCCn1cc(/C=N/O)c(-c2ccc(F)cc2)n1`, with -0.128; and `O=C(CCC(=O)OCc1cccc(C(=O)Oc2ccccc2)c1)Nc1cccc2ccccc12`, with -0.257.
Then `CCC(=O)N1CCN(c2ccc(NC(=O)c3ccc(-c4ccccc4)cc3)cc2)CC1`, with 0.0984.
In turn, `C=CCn1c(N)c(C(=O)Nc2ccc(C)cc2)sc1=S` showed a z-score of -0.33.
Then `COc1cc(CNCc2cccs2)ccc1OCC(N)=O`, with -0.117; and `O=C(CN1CCN(S(=O)(=O)c2ccc(Cl)s2)CC1)NCc1ccc(Cl)cc1`, with -0.194.
Then `COc1cccc(-c2cc(C(=O)N3CCCCCC3)no2)c1`, with -0.146.
As for `CC(C)SC1=NC(C)(C)C=C(/C=C/c2c(Cl)cccc2Cl)N1`, the z-score was -0.226.
`O=C(COC(=O)[C@@H]1CCCN1C(=O)c1cccs1)NCCc1ccccc1` came in with a z-score of -0.189.
Then `O=C1CN(C(=O)c2ccccc2)c2ccccc2N1`, with 0.62; and `COc1cccc(S(=O)(=O)Nc2ccc3sc(C)nc3c2)c1`, with 0.296; and `COc1ccc(C2SCC(C(=O)NCc3ccc(F)cc3)N2C(C)=O)cc1` (stereo unspecified), with 0.16.
Compound `CCOC(=O)C(C)Oc1cccc2c(=O)n(CC(=O)NCc3ccc4c(c3)OCO4)ccc12` (stereo unspecified) yielded a z-score of 0.0188.
Then `O=C(Nc1ccccc1N1CCCCC1)c1cccc(F)c1`, with 0.0251.
Then `CCOC(=O)N1CCN(C(=O)Cn2nc(-c3ccc(Cl)cc3)ccc2=O)CC1`, with 0.862.
To `COCCNC(=O)CN(C(=O)Cn1nnc2ccccc21)c1ccc(C)c(F)c1` belongs 0.414; to `CC(=O)C1=C(C)NC(SCC(=O)c2ccccc2)=C(C#N)C1c1ccco1` (stereo unspecified), -1.16; to `COc1ccc(C2CC(C(F)(F)F)n3ncc(C(=O)O)c3N2)cc1OC` (stereo unspecified), 0.197.
In turn, `CN(CCNC(=O)c1ccc(/C=N/O)nc1)Cc1ccccc1` returned a z-score of -0.17.
Then `COc1cccc(NC(=O)c2oc3ccccc3c2NC(C)=O)c1`, with -0.17; and `O=C(COC(=O)CCC1CCCC1)Nc1ccc(Cl)cc1F`, with -0.306; and `O=S(=O)(Cc1ccccc1)N1CCN(Cc2ccc3c(c2)OCO3)CC1`, with -0.244.
Then `CC(=O)Nc1ccc(-c2nnc(SCC(=O)n3c4c(c5ccccc53)CCCC4)n2C)cc1`, with -0.361.
To `O=C(NCCN1CCOCC1)C1CCN(c2ncnc3c2sc2cccc(F)c23)CC1` belongs -0.949; to `CCOC(=O)C(C)Oc1cccc2c(=O)n(CC(=O)N3CCCc4ccccc43)ccc12` (stereo unspecified), -0.762; to `Cc1ccc(-c2nnc(-c3ccccc3)c(N3CCOCC3)n2)cc1`, 0.194.
`Cc1cc(OCC[N+]2(C)CCCCC2)nc2ccccc12` returned a z-score of 0.0466.
Then `CCC(CC)NC(=O)Cc1ccccc1[N+](=O)[O-]`, with 0.0136; and `COC(=O)c1cc(C(=O)OC)cc(N2C(=O)CC(N3CCN(c4ccccc4)CC3)C2=O)c1` (stereo unspecified), with 0.214; and `COc1nc(NCCO)nc(Nc2ccc([N+](=O)[O-])cc2)n1`, with -0.159.
To `Cc1ccc2c(c1)NC(=O)C(CC(=O)O)O2` (stereo unspecified) belongs -0.175; to `Cc1ccnc(SCC(=O)N2CCN(c3cccc(Cl)c3)CC2)n1`, -0.324.
To `CCOc1ccc(NC(=O)c2ccc3c(c2)N(Cc2ccc(F)cc2)C(=O)CS3=O)cc1` (stereo unspecified) belongs -0.201; to `CC1(C)CC(=O)c2sc(NC(=O)c3cccs3)nc2C1`, -0.0824; to `C=CCN1CN(Cc2ccco2)CNC1=S`, 0.23.
The compound `Cc1ccc(NC(=O)Cc2ccc3c(c2)CCCC3)cc1C` returned a z-score of 0.121.
As to `CCOc1ccc(C(=O)Nc2nccs2)cc1[N+](=O)[O-]`, the z-score is -0.266.
Then `C#CCSc1nccc(-c2nn(-c3ccc(C)cc3)ccc2=O)n1`, with -0.477.
Then `O=C(NC(=S)Nc1ccc(N2CCCCC2)cc1)c1ccc2c(c1)OCCO2`, with 0.0318.
Then `CC(O)(C#CCN1CCCCC1)c1ccccc1` (stereo unspecified), with -0.0414; and `Cc1ccccc1OCCOc1cccc(/C=N/NC(=O)Cc2nnc(N)s2)c1`, with -0.406.
On to `CCCCCn1c(SCC2CCCO2)nc2cc(C(=O)N3CCC(C(N)=O)CC3)ccc2c1=O` (stereo unspecified), for which the z-score is -0.409.
For `Cc1ccc(NC(=O)c2ccc(CSc3nnc(C)s3)cc2)cc1`, the z-score is 0.00986.
